Test results from paper PMC4242493.
This is one part of the list. The list includes weakly bound sequences.

The sequences below were run against MaxL homodimer (UniProt P61244) (assay: universal protein-binding microarray (PBM)). Conditions: PBS-based mixture, 10 nM His-tagged protein dimer, 2% milk, 200 ng/uL BSA, 50 ng/uL salmon testes DNA, 0.02% TX-100; detection with Alexa 488 anti-His …; high values mean tight binding; most listed sequences are background and not binding sites; double strand, one strand shown.
Sequence of UniProt P61244 (P61244 whole entry): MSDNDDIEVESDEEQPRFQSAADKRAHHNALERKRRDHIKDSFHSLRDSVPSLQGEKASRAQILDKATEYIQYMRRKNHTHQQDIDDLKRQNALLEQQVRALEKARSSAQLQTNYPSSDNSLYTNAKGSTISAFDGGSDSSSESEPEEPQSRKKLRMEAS

Sequence | binding signal (normalized occupancy)
ACATGAGG | 0.108
GGTGTACA | 0.0857
CCGCCCGG | 0.0669
CCGTTTAA | 0.0797
AGGTGGAC | 0.0775
GGTGCTGA | 0.078
CAGTTTAA | 0.072
ATTAGCGA | 0.0781
GCTTTAAC | 0.0738
AATTTTAG | 0.0735
AAAGTTTA | 0.0713
CTTATGGA | 0.0817
AGCGTCCT | 0.0691
GTATACGA | 0.0815
ACGACATA | 0.0804
CCTGTCTC | 0.0731
GAGCAGGA | 0.0774
CCTAACCA | 0.0788
GATAAGCC | 0.0742
AAAATTCC | 0.0739
GAAAGCCC | 0.0707
CGGTGAAG | 0.0669
ACTTTGCG | 0.0735
AGCGGTTA | 0.0705
GATTGCCC | 0.0716

Sequence | binding signal (normalized occupancy)
ATGTACTC | 0.079
AGAGCTCG | 0.0631
CACTTCAG | 0.0728
CCTGGCCC | 0.0674
AGCTGCAA | 0.0728
AGGTCGCA | 0.0729
GACGTCAC | 0.0804
AGGTGAAC | 0.0741
GCCTAGTA | 0.0707
ATATTCAA | 0.0746
CCTGTAAC | 0.0755
CATACCCC | 0.0865
ACAGATCT | 0.0745
ACAGCATA | 0.0896
ACTGTTAG | 0.069
ACTGCTTA | 0.0691
TCTTCTCA | 0.0759
TTCGCGAA | 0.0713
AAGAAGTG | 0.0785
CCATTAGA | 0.0743
AACCGTAC | 0.0755
CCCATAGA | 0.0816
GATACGTA | 0.0774
ACGTGCAA | 0.098
CAGAATCC | 0.0733

Sequence | binding signal (normalized occupancy)
CCTCTTCG | 0.0738
AATGTTGG | 0.0822
ACCCTTCA | 0.0744
GAATTCGC | 0.0671
CGCTTTAG | 0.0703
CTATAAAA | 0.0774
CACTTATC | 0.0778
ATCTAGTG | 0.078
GGCTGATA | 0.0751
ACATGGAA | 0.0918
ACTACCAT | 0.0792
CAAGAGTC | 0.0647
CCCCCGAG | 0.076
CGCCGATA | 0.0749
ATTGAGCG | 0.0707
GGACACGA | 0.0805
GTAGACAA | 0.0807
GGAGAAAC | 0.0778
CGACGTCA | 0.0748
CTGCCATC | 0.0793
ACAATCGT | 0.0764
CCTAGACG | 0.0677
CTCAGCCA | 0.0752
AAGTCCAA | 0.0685
ATCGGAGG | 0.0719

Sequence | binding signal (normalized occupancy)
AGCACCGG | 0.074
CTGATATA | 0.0784
ACGCACTA | 0.0766
CCAGCCCA | 0.068
AGTAAGTA | 0.0783
CGCATTCC | 0.0738
CACGTATA | 0.0829
CGGCTGAC | 0.0716
AAAGGACT | 0.076
CAGATCGC | 0.0677
CAGGTTCA | 0.0757
ATTTTGTA | 0.0715
ATGGCGCA | 0.0778
CACTTACC | 0.0761
ACAATGTA | 0.085
TGCCGGCA | 0.0761
CAAACGAG | 0.0736
AATTTCTA | 0.0767
CACCCCTG | 0.0814
CACGGCGC | 0.0735
AAATGGTC | 0.078
ATACATAG | 0.0774
TCGGTGCA | 0.0712
CTTGATGC | 0.0757
CAAGGTCG | 0.0698

Sequence | binding signal (normalized occupancy)
CGCTATAC | 0.0775
ATGTCGGA | 0.0778
GTCGAGTA | 0.0742
GTACACAC | 0.0842
ATGGTGGC | 0.0852
CGGATCGA | 0.0731
TAGGCTAA | 0.0678
AGGCGTGG | 0.098
GACGGTCC | 0.0678
CCTACTCC | 0.0781
GACTGTGC | 0.0769
AGCGCTAA | 0.0686
ATAAAAGC | 0.0779
GCGGCACC | 0.0711
GCCGAGGC | 0.0691
AATCCCTG | 0.0749
GTTCCGGA | 0.0676
GTTCGGAA | 0.0709
ACTACTCG | 0.0816
TACTGTGA | 0.0738
GATTGGGA | 0.076
GGACATGA | 0.0803
AGTTTACC | 0.0716
CATCATGA | 0.0846
AGCGGATC | 0.0698

Sequence | binding signal (normalized occupancy)
AGGGTACA | 0.0761
GGATTCCC | 0.0689
TATTGCGA | 0.0779
ATGATAAA | 0.0793
GGCCGCCC | 0.0664
AAGTGTAG | 0.0767
TCTTCGAA | 0.069
AGTACCAG | 0.0708
ATAGAGGG | 0.0791
GTCCACAC | 0.0845
ATATTCGA | 0.0814
GACTCCGA | 0.0695
AGGTATGA | 0.0848
ACGTACTG | 0.0773
CGAATTAG | 0.074
GGAGGACA | 0.0815
ACCGAGCA | 0.0683
AAGAACAG | 0.0731
AACTTTCG | 0.074
GACGCCGC | 0.0708
ATCATCTA | 0.0805
GGGCCGCA | 0.0799
GACAATAC | 0.0781
CGCACTAC | 0.0743
TATACTCA | 0.0776

Sequence | binding signal (normalized occupancy)
ATTCTTTC | 0.0747
CATTACCG | 0.0757
GAGCGAGC | 0.0678
CTGTTAAA | 0.0748
AGGAGAAA | 0.0735
CACAGAGC | 0.0736
GTTAGGCA | 0.0756
CTGTTTTA | 0.0767
CCATTACC | 0.0715
CTAAATCC | 0.071
GAAACATA | 0.0848
CCACCTAG | 0.0714
ATAGTCGG | 0.0724
ATGCGCTC | 0.0847
GAGGCTCA | 0.07
ATTAGCCG | 0.0727
ATTATACC | 0.0816
CCACGTGG | 0.971
ATTACGGA | 0.0797
CAAAATCA | 0.0749
AGGACTAC | 0.0744
AATAACAC | 0.0908
